Structures are written as SMILES. Not every entry of the source has a single result; some have several. They are shown here; other results are not. An entry can have further records. Values that stand side by side repeat one measurement in other runs, samples, wells, individuals or studies. Marks such as (2×) count equal records among those shown.

These results are taken from PubChem BioAssay AID1963826 (Molecular Pharmacology Branch, DTP, NCI, 2024).

For this assay, the system named is 926638-142-R-J1-PDC complex spheroid viability. The assay can be described thus: Anticancer human tumor 926638-142-R-J1-PDC patient-derived endometrial carcinoma cell line growth inhibition [POLQ]. Particulars: stronger effect = lower value. On the procedure:
Multicellular complex tumor spheroid response to Polymerase (POL) inhibitors (novobiocin, ART-558, RP6685) in combination with a variety of drugs and investigational agents in selected tumor cell lines
The POL inhibitors (novobiocin, ART-558, and RP6685) were evaluated both individually and in combination with standard of care and investigational anticancer small molecules within a complex spheroid model of solid tumors. . Complex spheroids include a stromal component modeled by human endothelial cells (HUVEC) and fibroblasts modeled by human mesenchymal stem cells (MSCs). The concentration ranges selected for each drug and investigational agent were based upon clinically achievable concentrations if the clinical Cmax of the agent was known.
Compounds. The drugs and investigational agents: novobiocin (NSC847541), ART-558 (NSC835418), RP-6685 (NSC848927), peposertib (NSC802822), ceralasertib (NSC780249), elimusertib (NSC800525), camonsertib (NSC841442), AZD-1390 (NSC803789), olaparib (NSC753686), talazoparib (NSC767125), rucaparib (NSC756644), sotorasib (NSC818433), MRTX-1133 (NSC836407), SN-38 (NSC673596), topotecan (NSC609699), epotoside (NSC141540), doxorubicin (NSC123127), gemcitabine (NSC613327), 5-fluorouracil (NSC19893), paclitaxel (NSC125973), vemurafenib (NSC761431), MSA-2 (NSC828583), SN-011 (NSC837082), adavosertib (NSC754352), prexasertib (NSC758257), carboplatin (NSC241240) and oxaliplatin (NSC266046), were obtained from the National Cancer Institute (NCI) Developmental Therapeutics Program Chemical Repository (21). The FDA-approved anticancer drug set is available from the Developmental Therapeutics Program at https://dtp.cancer.gov/organization/dscb/obtaining/. […] The stock solutions were prepared in dimethyl sulfoxide (DMSO, Sigma-Aldrich, St. Louis, MO, cat. D2650), except for the platinum compounds which were prepared in saline (Quality Biological, Gaithersburg, MD, cat. 114-055-101), at 800-fold the tested concentration and stored at -70 degrees C prior to their use. All drugs and investigational agents were tested over a range starting from a high concentration at or near the clinical Cmax and decreasing in half-log increments. If the clinical Cmax for an agent had not been determined, the highest concentration tested was 10 microM, except for SN-38, which was tested at a high concentration of 1 microM.
Cell Culture. All cells were maintained in an incubator at 37 degrees C and 5% CO2 with 95% humidity. The PDC lines were cultured according to standard operating procedures established by the NCI PDMR (https://pdmr.cancer.gov). Table 3 of the manuscript, lists the cell lines along with the number of the three cell types plated to form the mct-spheroids and media for tumor cell growth. After thawing, all PDC lines, except 997537-175-T-J1-PDC and 415267-285-R-J2-PDC, were cultured in Matrigel-coated flasks prepared with a working solution of 1X Ham's F-12 nutrient mix, without supplementation (Thermo Fisher Scientific, cat. 11765054), 100 U/mL penicillin-streptomycin (Thermo Fisher Scientific, cat. 15140122), and 2.5% Matrigel (Corning Inc., Corning, NY, cat. 354248) for the first three passages. The two PDC lines 997537-175-T-J1-PDC and 415267-285-R-J2-PDC were cultured on uncoated flasks. The 857933-349-R-J2-PDC line was cultured in 6C/Colon 1B media containing advanced DMEM/F-12 (Thermo Fisher Scientific, cat. 12634028), 10 mM HEPES (Thermo Fisher Scientific, cat. 15630080), 1X GlutaMAX supplement (Thermo Fisher Scientific, cat. 35050061), 0.1 mg/mL primocin (InvivoGen, San Diego, CA, cat. ant-pm-2), 10% defined fetal bovine serum, heat inactivated (HyClone Laboratories Inc., Logan, UT, cat. SH30070.03HI), 50% L-WRN conditioned media (ATCC, cat. CRL-3276), 1.25 mM N-Acetyl-L-cysteine (Sigma-Aldrich, cat. A9165), 10 mM nicotinamide (Sigma-Aldrich, cat. N0636), 1X B-27 supplement (Thermo Fisher Scientific, cat. 17504044), 1X N-2 supplement (Thermo Fisher Scientific, cat. […]
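Also: spheroids exposed to drugs for one week before readout; percent viability relative to DMSO vehicle control wells set as 100%.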

For `Nc1ccc(C#CCN(C(=O)Cc2ncc(C(F)(F)F)cc2C(F)(F)F)c2ccc(F)cc2)nn1`, the viability, T/C (compound alone 0.316 µM) was 108, 83.3, 103 (2×), 95.1, 104, 99.9, 101, 97, 102, 107, 111, 96.2% and the viability, T/C (compound alone 3.16 µM) was 116, 109, 117, 101, 86.1, 115, 102, 96.9, 86, 103, 118, 87, 106%.

Turning to `Cc1cccc(N(C)C(=O)C2C(O)CCN2c2nc(C)cc(C(F)(F)F)c2C#N)c1` (stereo not given), the viability, T/C runs as follows: (compound alone 0.0316 µM) 92, 107 (2×), 94.7, 77.1, 96.8, 85.7, 96.2, 94.6, 103, 100, 98.7, 91.7%; (compound alone 1 µM) 90.5, 92.5, 85.2, 91, 79.9, 110, 102, 88.6, 95.5 (2×), 94.3, 106, 99.6%; (compound alone 3.16 µM) 95.8, 103, 102, 101 (3×), 65.7, 113, 92.9 (2×), 90.7, 117, 91.3%; (compound alone 10 µM) 91.5, 95.6, 82, 90.7, 74.5, 92.9, 108, 106, 99.3, 85, 104, 95.5, 98.3%.

For `COC1C(OC(N)=O)C(O)C(Oc2ccc3c(O)c(NC(=O)c4ccc(O)c(CC=C(C)C)c4)c(=O)oc3c2C)OC1(C)C` (stereo not given), the viability, T/C by setting is: (compound alone 0.0316 µM) 105, 103 (2×), 98.8, 93.1, 91, 97.8, 107, 96.1, 81.1, 101, 93, 112%; (compound alone 0.1 µM) 90.6, 106 (2×), 98.9 (2×), 94.6, 83.7, 98.2, 96.2, 120, 102, 91.3, 101%; (compound alone 1 µM) 106, 114, 113, 92.8, 92.3, 110 (2×), 98.3, 79.8, 100, 105, 117, 93.6%; (compound alone 3.16 µM) 109 (2×), 102 (2×), 95.1, 85.6, 93.4, 95.8, 115, 93, 98.6, 100, 106%.
